This is an account of results in ChEMBL document CHEMBL4888484, “Replenishing the malaria drug discovery pipeline: Screening and hit evaluation of the MMV Hit Generation Library 1 (HGL1) against asexual blood stage Plasmodium falciparum ,using a nano luciferase reporter read-out” (2022).

Screen size: about 150,000 compounds; about 540 (0.36%) showed an effect of 50% or more. This is one part of the list.

The assay concerns Plasmodium falciparum. The assay is described as follows: Primary screen in NF54 nanoGlo assay, in single point, at 2uM, 72h; a lower Z score goes with more inhibition. Type of assay: functional, Erythrocyte. Conditions: timepoint 72 hour.
In the case of `C[C@](NC(=O)CCc1ccsc1)(C(N)=O)c1cccc(Cl)c1`, the % Inhibition (commonly the relative decrease from the control value, in per cent) is listed as -7% and the Z score was found to be 1.21.

`COc1ccccc1N1CCN([C@H]2[C@@H]3OC[C@@H](O3)[C@@H](NCc3ccco3)[C@@H]2O)CC1`: the “% Inhibition” value was -11% and the Z score was found to be 1.46.

In the case of `Cn1cccc1C(=O)N1CCC[C@H](n2cc(-c3nc(-c4ccccc4)no3)nn2)C1`, the “% Inhibition” value is on record as -11% and the Z score was 1.2.

As to `COc1cc(C(=O)N2CCc3[nH]c(-c4ccc(F)cc4F)nc3C2)ccn1`, the “% Inhibition” value is on record as -1% and the Z score is reported as 0.13.

Consider `CCOC(=O)C1CCC(Nc2cccc(-c3nnco3)c2)CC1C` (centres undefined), for which the “% Inhibition” value is -13% and the Z score was 1.26.

Turning to `Cc1ccc(-c2cc(C(=O)NC[C@H]3CCCO3)c3ccccc3n2)s1`, the “% Inhibition” value turned out to be 13% and the Z score was -1.89.

Consider `O=C1C2CC2C(=O)N1c1ccc2snnc2c1` (centres undefined), for which the “% Inhibition” value is on record as -7% and the Z score is recorded as 0.98.

`CNc1cc(C)nc(N2C[C@H](C)[C@@](O)(C3CC3)C2)n1`: the “% Inhibition” value worked out at 7% and the Z score is recorded as -1.4.

Consider `Cc1cnn(C(C)C)c1Nc1nc2c(s1)c(C)nn2C`, for which the “% Inhibition” value is -5% and the Z score is 0.89.

Consider `CN(CCCCN1CCOCC1)C(=O)c1cn[nH]c1`, for which the “% Inhibition” value was -5% and the Z score is reported as 0.99.

As for `COc1ccc(C)cc1NC(=O)CCc1nc2c(C)nn(-c3ccccc3)c2n(C)c1=O`, the “% Inhibition” value is listed as -14% and the Z score worked out at 2.59.

Take `CC1CN(Cc2ccccc2)CC(C)C1NC(=O)c1ccncc1F` (centres undefined): the “% Inhibition” value was determined as 37% and the Z score is reported as -5.28.

For `NC(=O)c1cc[nH]c1[C@H]1CCCN(C(=O)c2ccc(F)c(Cl)c2)C1`, the “% Inhibition” value is given as 5% and the Z score was -0.59.

For the molecule `CC(C(=O)NCc1cccs1)N1CCCCC1Cn1cncn1` (centres undefined), the “% Inhibition” value was -10% and the Z score is reported as 1.13.

In the case of `CC(c1nc(C2CC2)no1)N1CCN2C(=O)NCC2C1` (centres undefined), the “% Inhibition” value was -1% and the Z score was 0.19.

As for `CC(C)c1nc([C@@H]2CCCCCN2C(=O)c2ccccn2)no1`, the “% Inhibition” value is reported as -14% and the Z score stood at 1.2.

Consider `O=C(Cc1ccccc1)Nc1ccc(C2OC(=O)N(Cc3ccccc3)C2C(=O)NCc2ccc(F)cc2)cc1` (centres undefined), for which the “% Inhibition” value was -18% and the Z score came out at 1.77.

In the case of `CN(C)C(=O)c1ccnc(NC(=O)c2ccnn2CC2CCC2)c1`, the “% Inhibition” value is -8% and the Z score is 1.25.

`CCn1ncnc1CN1C[C@@H]2NC(=O)CN(CCOC)C(=O)c3cncc(c3)Oc3cccc(c3)CO[C@H]2C1`: the “% Inhibition” value was -26% and the Z score is 3.37.

`CCOc1ccc(-c2ccc(OCCNC(=O)c3ccc(S(=O)(=O)N4CCCC4)cc3)nn2)cc1`: the “% Inhibition” value is -9% and the Z score is recorded as 1.66.

As to `O=S(=O)(CCC(F)(F)F)N[C@H]1CCn2nccc2C1`, the “% Inhibition” value was -6% and the Z score is 1.

In the case of `COc1ccccc1CC(=O)Nc1nncn1C`, the “% Inhibition” value is given as -3% and the Z score came to 0.38.

Take `CC[C@H](NC1CCN(Cc2ccco2)CC1)c1cc(C)ccn1`: the “% Inhibition” value is recorded as -9% and the Z score was found to be 1.94.

In the case of `CCOc1cccc(CC(=O)NCc2ccc3c(c2)CCN3C(=O)c2ccc(Cl)cc2)c1OCC`, the “% Inhibition” value is reported as -12% and the Z score was 2.18.

`Cc1c(Cl)cccc1OCC(=O)N1C[C@@H]2CS(=O)(=O)C[C@@H]2C1`: the “% Inhibition” value was 7% and the Z score was -1.32.

On to `O=C(NCc1ccc2c(c1)CCN2C(=O)c1ccccc1)c1ccc(F)cc1`, for which the “% Inhibition” value is listed as -9% and the Z score was 1.67.

Consider `Cc1nc(N(C)C2CCCCC2)ncc1[C@H](C)NC(=O)Cn1cnnn1`, for which the “% Inhibition” value was 1% and the Z score is -0.26.

As for `CC(C)C[C@H](C)n1nccc1NC(=O)NCCC(=O)N(C)C`, the “% Inhibition” value was -6% and the Z score is 0.51.

For the molecule `CCN(CC)c1ccc(C(=O)N2CCN(c3nc(-c4ccc(Cl)cc4)no3)CC2)cc1`, the “% Inhibition” value is listed as -15% and the Z score is listed as 2.06.

Regarding `CC[C@@H](c1nc(Cc2cccc(Cl)c2)nn1CCO)n1cccn1`, the “% Inhibition” value was -6% and the Z score is reported as 0.99.

Take `C=CCn1c(=O)c2sc(N(CC)CC)nc2n(CC(=O)NCc2ccc3c(c2)OCO3)c1=O`: the “% Inhibition” value is listed as -22% and the Z score is recorded as 1.96.

For `Cc1ccc2ncc(-c3noc([C@@H]4CCCN4C4CCCC4)n3)n2c1`, the “% Inhibition” value is listed as -8% and the Z score worked out at 1.35.

With `COc1ccc(CCNCc2c[nH]nc2-c2cccnc2)c(Cl)c1`, the “% Inhibition” value was found to be 11% and the Z score is reported as -1.64.

Take `Cc1nn(C)cc1CN1CCC(=O)N(CC2CCCCC2)CC1`: the “% Inhibition” value is given as -4% and the Z score is on record as 0.68.

For the molecule `Cc1cc(C(=O)N(C2CCCCC2)[C@H]2CCS(=O)(=O)C2)ccn1`, the “% Inhibition” value was -6% and the Z score was 0.87.

Take `COc1ccc(CNC(=O)CC(F)(F)F)cc1`: the “% Inhibition” value amounted to 4% and the Z score was -0.59.

Take `COc1ccc(O)c(C(=O)N2CCCC3(CCN(C)CC3)CC2)c1`: the “% Inhibition” value is recorded as 3% and the Z score was -0.45.

On to `Cc1cccc(C(=O)N2CCOc3ccc(CN4CCOCC4)cc3C2)c1`, for which the “% Inhibition” value was -3% and the Z score is reported as 0.62.

Take `Cc1nn(C)cc1C(=O)NC1(C(=O)N(C)C)CCCCC1`: the “% Inhibition” value is -15% and the Z score is 2.35.

Turning to `Cc1noc2ncnc(N3CCC(Cc4nncn4C)CC3)c12`, the “% Inhibition” value is reported as -7% and the Z score is recorded as 1.3.

Take `NCc1nc(CN2C(=O)c3ccccc3C2=O)no1`: the “% Inhibition” value is on record as -9% and the Z score came out at 0.99.

For the molecule `Cn1ncnc1NC(=O)c1cncc(Br)c1`, the “% Inhibition” value came out at 10% and the Z score was -1.15.
